Test results published in the supplement of paper PMC10600219.
Where a name gives a salt, the structure may show the parent alone. In all, about 2,800 compounds were measured (“cell viability relative to vehicle”: median about 1.1, lowest 2% from about 0.19 on). This is one part of the list.

system: NCI-H2228 parental; assay: cell viability relative to vehicle (fraction of vehicle); NCI-H2228 is an ALK-positive lung cancer line and DTP means drug-tolerant persister; higher = less growth inhibition; details: 100 nM; treatment time 6 days
Procedure, shortened: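 Parental NCI-H2228 cells and drug-tolerant persister cells (made with 1000 nM of a targeted drug for 13 days) were seeded in 384-well plates. The next day, the 3114-agent TargetMol anti-cancer compound library was added at 100 nM, with DMSO as vehicle. After 6 days, ATP was read with the CellTiter-Glo 3D Cell Viability Assay. Each value is cell viability relative to vehicle-treated cells.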

Compound | cell viability
COC(=O)/C=C/C(=O)OC [Dimethyl fumarate] | 1.21
Cc1c(C(=O)N2CCOc3ccc(-c4ccc(N)nc4)cc3C2)ccc(S(C)(=O)=O)c1F | 1.05
CC(NCCc1ccc(O)cc1)C(O)c1ccc(O)cc1 (stereo not drawn) [Ritodrine hydrochloride] | 0.873
C[C@H](Nc1ncnc2nc[nH]c12)c1cc2cccc(Cl)c2c(=O)n1-c1ccccc1 [Duvelisib] | 1.04
O=C1CSc2ccccc2N1Cc1cccc(C(F)(F)F)c1 | 1.04
NC1CCN(c2c(F)cc3c(=O)c(C(=O)O)cn(C4CC4)c3c2Cl)C1 (stereo not drawn) [Clinafloxacin] | 1.19
C/C1=C/CC[C@H](C)C(=O)C[C@@H](C(C)C)C(=O)C1 [Curdione] | 1.07
CC(C)c1cnn2c(NCc3ccccc3)cc(NCCCCCCN)nc12 | 0.884
CCc1nn(CCCN2CCN(c3cccc(Cl)c3)CC2)c(=O)n1CCOc1ccccc1 [Nefazodone hydrochloride] | 1.11
N[C@@H](CCCCNC(=O)C(F)(F)F)C(=O)O [N-6-Trifluoroacetyl-L-lysine] | 0.931
O=C(c1ccc(F)c(F)c1Nc1ccc(I)cc1F)N1CC(O)([C@@H]2CCCCN2)C1 [Cobimetinib] | 0.974
O=S(=O)(c1cccc2cnccc12)N1CCCNCC1 [Fasudil hydrochloride] | 1.04
COc1cc2nc(N3CCCN(C)CC3)nc(NC3CCN(Cc4ccccc4)CC3)c2cc1OC | 1.14
CN1CCN(c2ccc3[nH]c(-c4ccc5[nH]c(-c6ccc(O)cc6)nc5c4)nc3c2)CC1 | 1.13
O=C(CSc1nc2c(c(=O)n1-c1ccccc1)SCC2)Nc1ccc(-c2ccccc2)cn1 | 0.913
CCC(C)(C)C(=O)O[C@H]1C[C@@H](C)C=C2C=C[C@H](C)[C@H](CC[C@@H]3C[C@@H](O)CC(=O)O3)[C@H]21 [Simvastatin] | 1.14
Cn1cc(C2=C(c3cccc(N)c3)C(=O)NC2=O)c2ccccc21 | 1.05
CCN1CCN(Cc2ccc(NC(=O)c3ccc(C)c(NC(=O)c4cncc(-c5cccs5)c4)c3)cc2C(F)(F)F)CC1 | 0.829
N#CC[C@H](C1CCCC1)n1cc(-c2ncnc3[nH]ccc23)cn1 [Ruxolitinib] | 1.04
COc1cc(NC(=O)Nc2cccc(CNC(=O)O[C@H]3CCOC3)c2)ccc1-c1cnco1 [Merimepodib] | 1.15
CC1CCC(C(C)C)C(O)C1 (racemic) [DL-Menthol] | 1.22

Compound | cell viability
CCCc1nn(C)c2c(=O)[nH]c(-c3cc(S(=O)(=O)N4CCN(C)CC4)ccc3OCC)nc12 [Sildenafil citrate] | 1.12
COc1cc(O)c(C(=O)/C=C/c2ccccc2)c(OC)c1 [Flavokawain B] | 1.16
NNC(=O)c1ccncc1.Nc1ccc(C(=O)O)c(O)c1 [Pasiniazid] | 1.16
CN(C[C@@H]1COCCO1)S(=O)(=O)Nc1ccc2ccc3ncc(-c4cnn(C)c4)cc3c(=O)c2c1 | 1.12
c1ccc(-c2nn3c(c2-c2ccnc4cc(OCCN5CCOCC5)ccc24)CCC3)nc1 | 0.933
O=C(O)c1ccccc1Nc1cccc(C(F)(F)F)c1 [Flufenamic acid] | 1.2
O=C(O)Cn1nnc(-c2cc(N3CCC(Oc4cc(F)ccc4Br)CC3)no2)n1 | 1.08
Clc1ccc(C(c2ccccc2Cl)C(Cl)Cl)cc1 (stereo not drawn) [Mitotan] | 1.07
CCCCC/C=C\C/C=C\C/C=C\CCCCC(=O)O [gamma-Linolenic acid] | 1.01
c1ccc(CNc2nc(N3CCOc4ccccc43)nc3c2CCCC3)cc1 [ML241 hydrochloride] | 1.01
CCCCN1CCCC[C@H]1C(=O)Nc1c(C)cccc1C [Levobupivacaine] | 1
CNCc1ccc(C)c(NC(=O)c2ccc(Nc3nc(-c4ccccc4)c4ccccc4n3)cc2)c1 | 1.2
Nc1ccc(C(=O)O)c(O)c1 [Sodium 4-aminosalicylate dihydrate] | 1.18
Nc1ccc(C(=O)O)c(O)c1 [Aminopar] | 0.992
CC(C)n1c(=O)n(C)c2cnc3cc(F)c(-c4ccc(OCCCN5CCCCC5)nc4)cc3c21 | 0.643
COc1cc(CCc2cc(NC(=O)c3ccc(N4CC(C)NC(C)C4)cc3)n[nH]2)cc(OC)c1 (stereo not drawn) | 1
O=C(O)/C(Cc1ccccc1[N+](=O)[O-])=N/Nc1nc(-c2ccc(Cl)c(Cl)c2)cs1 | 0.884
NCCCS(=O)(=O)O [Homotaurine] | 1.14
CC(C)[C@H](O)C(=O)N[C@@H](C)C(=O)N[C@@H]1C(=O)N(C)CCc2ccccc21 [Semagacestat] | 1.1
Cc1cn(-c2cc(NC(=O)c3ccc(C)c(Nc4nccc(-c5cnccn5)n4)c3)cc(C(F)(F)F)c2)cn1 [Radotinib] | 0.972
CCC(=O)O[C@]1(C(=O)SCF)[C@H](C)C[C@H]2[C@@H]3C[C@H](F)C4=CC(=O)C=C[C@]4(C)[C@@]3(F)[C@@H](O)C[C@@]21C [Fluticasone propionate] | 0.795

Compound | cell viability
Cc1cc(F)c(C(=O)Nc2cccc(-c3nncn3C(C)C)n2)cc1-n1cnc(C2CC2)c1 [Selonsertib] | 0.97
CN1CCC(=C2c3ccccc3CCn3c(C=O)cnc32)CC1 [Alcaftadine] | 1.2
O=C(Nc1ccc(CN2CCOCC2)cc1)c1ccc(-c2cccc(Cl)c2)o1 | 0.775
Nc1ccccc1C(=O)C[C@H](N)C(=O)O [L-Kynurenine] | 1.03
COc1ccc(CCC(=O)Nc2nc3ccc(Cl)cc3s2)cc1OC | 1
C=C1C(=O)O[C@H]2[C@H]1CC/C(C)=C/CC[C@@]1(C)O[C@@H]21 [Parthenolide] | 1.11
Cn1nnc2c(C(N)=O)ncn2c1=O [Temozolomide] | 0.813
C[C@]12CC[C@H](O)CC1=CC[C@@H]1[C@@H]2CC[C@]2(C)C(c3cccnc3)=CC[C@@H]12 [Abiraterone] | 1.1
CC(C)(C)CC(C)(C)c1ccc(OCCOCC[N+](C)(C)Cc2ccccc2)cc1 [Benzethonium chloride] | 1.18
COc1ccc(C=C(C#N)c2cccnc2)cc1OC | 1.15
C=CC[N+]1([C@H]2C[C@H]3[C@@H]4CC[C@H]5C[C@H](O)[C@@H](N6CCOCC6)C[C@]5(C)[C@H]4CC[C@]3(C)[C@H]2OC(C)=O)CCCC1 [Rocuronium bromide] | 1.03
Cc1ccc(C(=O)Cn2c3c(sc2=N)CCCC3)cc1 [Pifithrin-α] | 0.899
CC(C)(C)NC(=O)[C@H]1CC[C@H]2[C@@H]3CC[C@H]4NC(=O)C=C[C@]4(C)[C@H]3CC[C@]12C [Finasteride] | 1.12
Cc1ccc(C(=O)N(CCCN)[C@@H](c2oc3cc(Cl)ccc3c(=O)c2Cc2ccccc2)C(C)C)cc1 | 0.247
C=C1CC[C@H](O)C/C1=C/C=C1\CCC[C@]2(C)[C@@H]([C@H](C)/C=C/[C@H](C)C(C)C)CC[C@@H]12 [Vitamin D2] | 1.04
COc1cc2ccc(=O)oc2cc1OC [Scoparone] | 1.03
CCS(=O)(=O)N1CCN(c2ccc(Nc3ncc(C(N)=O)c(NC4CC4)n3)cc2)CC1 [Cerdulatinib] | 0.683
CC(=O)NC(CC(C)C)C(=O)O (stereo not drawn) [Acetylleucine] | 1.28
CC(C)C(=O)c1c(C(C)C)nn2ccccc12 [Ibudilast] | 1.08
C[C@H]1COC2(CCN(c3nc(=O)c4cc(C(F)(F)F)cc([N+](=O)[O-])c4s3)CC2)O1 | 1.23
CCc1ccc(OCC(=O)Nc2ccc(F)c([N+](=O)[O-])c2)cc1 | 1.07

Compound | cell viability
O=C(c1ccccc1)c1ccc2nc(NC(=O)c3csc(C4CCN(c5ncnc6ccsc56)CC4)n3)[nH]c2c1 | 1.03
CN1CCN(c2ccc(C(=O)Nc3cc(-c4cccc(NS(=O)(=O)c5ccccc5)c4)[nH]n3)cc2)CC1 | 1.15
CC(CN(C)C)CN1c2ccccc2CCc2ccccc21 (stereo not drawn) [Trimipramine maleate] | 0.975
CCCCCCCC(=O)c1c(O)cc(O)cc1CC(=O)OCC [Cytosporone B] | 1.03
Cc1c(-c2ccc(-c3ccccc3F)cc2)nc2ccc(F)cc2c1C(=O)O [Brequinar] | 1
C=CC(=O)N[C@H]1CCOC[C@H]1Nc1ncc2cc(-c3c(Cl)c(OC)cc(OC)c3Cl)ccc2n1 | 1.07
C[C@H](CS)C(=O)N1CCC[C@H]1C(=O)O [Captopril] | 1.21
CCOC(=O)c1c2c3c(cccc3[nH]c1=O)C(=O)c1ccccc1-2 | 1.06
COc1cc(/C=C/C=O)ccc1O [Coniferyl aldehyde] | 0.918
Cn1cnc2c(F)c(Nc3ccc(Br)cc3Cl)c(C(=O)NOCCO)cc21 [Selumetinib] | 1.04
Nc1nc(N)c2nc(-c3cccc(O)c3)c(-c3cccc(O)c3)nc2n1 | 1.19
NCCc1ccc(O)c(O)c1 [Dopamine hydrochloride] | 1.1
O=C(/C=C/c1cccnc1)NCCCCC1CCN(C(=O)c2ccccc2)CC1 | 0.271
Cc1c(Nc2ncccc2C(=O)O)cccc1C(F)(F)F [Flunixin meglumin] | 1.02
OC[C@@H](O)CN1CCN(c2ccccc2)CC1 [Levodropropizine] | 1.02
N#CC1(c2ccc(NC(=O)c3cccnc3NCc3ccncc3)cc2)CCCC1 [Apatinib] | 0.88
CC(ONC(=O)c1cc(C(F)(F)F)cc(C(F)(F)F)c1)C(=O)Nc1ccc(Cl)cc1 (stereo not drawn) | 1.07
CN1CCN(C(=O)c2cc3cc(Cl)ccc3[nH]2)CC1 | 1.11
COc1ccc(CNc2nc(N3CCC[C@H]3CO)ncc2C(=O)NCc2ncccn2)cc1Cl [Avanafil] | 0.966
COC(=O)N[C@H](C(=O)N1CC2(CC2)C[C@H]1c1nc(-c2ccc3c(c2)C(F)(F)c2cc(-c4ccc5[nH]c([C@@H]6[C@H]7CC[C@H](C7)N6C(=O)[C@@H](NC(=O)OC)C(C)C)nc5c4)ccc2-3)c[nH]1)C(C)C [Ledipasvir] | 1.05
